Residue numbers refer to the chain shown, from its start. The list shows a part of the results.
T1: RBFOX1 RRM RbFoxmut (Fox-RRM*) (Homo sapiens, UniProt Q9NWB1 109-208, R118D;E147R;N151S;E152T)
T1 sequence: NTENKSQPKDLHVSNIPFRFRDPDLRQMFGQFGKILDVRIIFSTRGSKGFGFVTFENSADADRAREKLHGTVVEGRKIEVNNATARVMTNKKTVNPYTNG

B1: CAUGCAC (DNA:RNA)
RNA: GGGAGACCGGAAUUCAGAUUGUCCCAUGCACUUAAAUCCCGUCGUAGCCACCA
DNA 1: CAATCTGAATTCCGGTCTCCC
DNA 2: TGGTGGCTACGACGGGATT
B2: ACGUCUC (DNA:RNA)
RNA: B1 RNA with C25A, A26C, U27G, G28U, A30U
DNA 1: CAATCTGAATTCCGGTCTCCC
DNA 2: TGGTGGCTACGACGGGATT
B3: ACAGUGG (DNA:RNA)
RNA: B1 RNA with C25A, A26C, U27A, C29U, A30G, C31G
DNA 1: CAATCTGAATTCCGGTCTCCC
DNA 2: TGGTGGCTACGACGGGATT
B4: UACAGCG (DNA:RNA)
RNA: B1 RNA with C25U, U27C, G28A, C29G, A30C, C31G
DNA 1: CAATCTGAATTCCGGTCTCCC
DNA 2: TGGTGGCTACGACGGGATT
B5: GUCUUUG (DNA:RNA)
RNA: GGGAGACCGGAAUUCAGAUUGUCCGUCUUUGUUAAAUCCCGUCGUAGCCACCA
DNA 1: CAATCTGAATTCCGGTCTCCC
DNA 2: TGGTGGCTACGACGGGATT
B6: AGCCAGC (DNA:RNA)
RNA: B1 RNA with C25A, A26G, U27C, G28C, C29A, A30G
DNA 1: CAATCTGAATTCCGGTCTCCC
DNA 2: TGGTGGCTACGACGGGATT
B7: CCUGACG (DNA:RNA)
RNA: B1 RNA with A26C, C29A, A30C, C31G
DNA 1: CAATCTGAATTCCGGTCTCCC
DNA 2: TGGTGGCTACGACGGGATT
B8: GCGACGC (DNA:RNA)
RNA: B1 RNA with C25G, A26C, U27G, G28A, A30G
DNA 1: CAATCTGAATTCCGGTCTCCC
DNA 2: TGGTGGCTACGACGGGATT
B9: GCGUGAG (DNA:RNA)
RNA: B5 RNA with U26C, C27G, U29G, U30A
DNA 1: CAATCTGAATTCCGGTCTCCC
DNA 2: TGGTGGCTACGACGGGATT
B10: ACAACAC (DNA:RNA)
RNA: B1 RNA with C25A, A26C, U27A, G28A
DNA 1: CAATCTGAATTCCGGTCTCCC
DNA 2: TGGTGGCTACGACGGGATT
B11: GAAUUCG (DNA:RNA)
RNA: B5 RNA with U26A, C27A, U30C
DNA 1: CAATCTGAATTCCGGTCTCCC
DNA 2: TGGTGGCTACGACGGGATT
B12: UCGCAGU (DNA:RNA)
RNA: GGGAGACCGGAAUUCAGAUUGUCCUCGCAGUUUAAAUCCCGUCGUAGCCACCA
DNA 1: CAATCTGAATTCCGGTCTCCC
DNA 2: TGGTGGCTACGACGGGATT
B13: CACCUUU (DNA:RNA)
RNA: B5 RNA with G25C, U26A, U28C, G31U
DNA 1: CAATCTGAATTCCGGTCTCCC
DNA 2: TGGTGGCTACGACGGGATT
B14: CCGUCAU (DNA:RNA)
RNA: B1 RNA with A26C, U27G, G28U, C31U
DNA 1: CAATCTGAATTCCGGTCTCCC
DNA 2: TGGTGGCTACGACGGGATT
B15: UAGGUUA (DNA:RNA)
RNA: B1 RNA with C25U, U27G, C29U, A30U, C31A
DNA 1: CAATCTGAATTCCGGTCTCCC
DNA 2: TGGTGGCTACGACGGGATT
B16: CAUGGAC (DNA:RNA)
RNA: B1 RNA with C29G
DNA 1: CAATCTGAATTCCGGTCTCCC
DNA 2: TGGTGGCTACGACGGGATT
B17: GGAUUGA (DNA:RNA)
RNA: B5 RNA with U26G, C27A, U30G, G31A
DNA 1: CAATCTGAATTCCGGTCTCCC
DNA 2: TGGTGGCTACGACGGGATT
B18: GUAGUGU (DNA:RNA)
RNA: B5 RNA with C27A, U28G, U30G, G31U
DNA 1: CAATCTGAATTCCGGTCTCCC
DNA 2: TGGTGGCTACGACGGGATT
B19: GCGCCAA (DNA:RNA)
RNA: B12 RNA with U25G, A29C, G30A, U31A
DNA 1: CAATCTGAATTCCGGTCTCCC
DNA 2: TGGTGGCTACGACGGGATT
B20: AGCACGA (DNA:RNA)
RNA: B1 RNA with C25A, A26G, U27C, G28A, A30G, C31A
DNA 1: CAATCTGAATTCCGGTCTCCC
DNA 2: TGGTGGCTACGACGGGATT
B21: UGUGACG (DNA:RNA)
RNA: B1 RNA with C25U, A26G, C29A, A30C, C31G
DNA 1: CAATCTGAATTCCGGTCTCCC
DNA 2: TGGTGGCTACGACGGGATT
B22: AGGGGUA (DNA:RNA)
RNA: B1 RNA with C25A, A26G, U27G, C29G, A30U, C31A
DNA 1: CAATCTGAATTCCGGTCTCCC
DNA 2: TGGTGGCTACGACGGGATT
B23: GGAUCAG (DNA:RNA)
RNA: B5 RNA with U26G, C27A, U29C, U30A
DNA 1: CAATCTGAATTCCGGTCTCCC
DNA 2: TGGTGGCTACGACGGGATT
B24: AUGAUUU (DNA:RNA)
RNA: B5 RNA with G25A, C27G, U28A, G31U
DNA 1: CAATCTGAATTCCGGTCTCCC
DNA 2: TGGTGGCTACGACGGGATT
B25: UCACGCG (DNA:RNA)
RNA: B12 RNA with G27A, A29G, G30C, U31G
DNA 1: CAATCTGAATTCCGGTCTCCC
DNA 2: TGGTGGCTACGACGGGATT
B26: UGUUAGC (DNA:RNA)
RNA: B12 RNA with C26G, G27U, C28U, U31C
DNA 1: CAATCTGAATTCCGGTCTCCC
DNA 2: TGGTGGCTACGACGGGATT
B27: GAACAAU (DNA:RNA)
RNA: B12 RNA with U25G, C26A, G27A, G30A
DNA 1: CAATCTGAATTCCGGTCTCCC
DNA 2: TGGTGGCTACGACGGGATT
B28: CCUUCAC (DNA:RNA)
RNA: B1 RNA with A26C, G28U
DNA 1: CAATCTGAATTCCGGTCTCCC
DNA 2: TGGTGGCTACGACGGGATT
B29: GGGCGGU (DNA:RNA)
RNA: B12 RNA with U25G, C26G, A29G
DNA 1: CAATCTGAATTCCGGTCTCCC
DNA 2: TGGTGGCTACGACGGGATT
B30: UGUGUUG (DNA:RNA)
RNA: B5 RNA with G25U, U26G, C27U, U28G
DNA 1: CAATCTGAATTCCGGTCTCCC
DNA 2: TGGTGGCTACGACGGGATT
B31: UCCACUU (DNA:RNA)
RNA: B12 RNA with G27C, C28A, A29C, G30U
DNA 1: CAATCTGAATTCCGGTCTCCC
DNA 2: TGGTGGCTACGACGGGATT

target: T1, RBFOX1 RRM RbFoxmut (Fox-RRM*); test: EMSA; HiTS-Eq, 1 nM pool, 10 min; buffer printed only for the single-RNA assays: 10 mM Tris pH 7.5, 150 mM NaCl, 3.4 mM EDTA, 0.001% NP-40, 30 C; conditions: tags: His6 N-terminal (pET28a); label: 5' 32P
In short: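 A pool of RNA with 7 randomized nucleotides, 5′-radiolabelled and with DNA-annealed flanks, was equilibrated at 1 nM for 10 min in 50 µL with purified RbFox RRM, wild type or mutant, across increasing protein concentrations. Free RNA was separated by 8% native PAGE, excised, reverse-transcribed, barcoded by PCR and sequenced. Relative association constants were obtained from read-count changes of each RNA species versus the control reaction and normalised to the cognate motif.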

Row | Binder | binding signal
1 | B1 | 0.115 KA relative to UGCAUGU
2 | B2 | 0.0546 KA relative to UGCAUGU
3 | B3 | 0.103 KA relative to UGCAUGU
4 | B4 | 0.0734 KA relative to UGCAUGU
5 | B5 | 0.115 KA relative to UGCAUGU
6 | B6 | 0.0776 KA relative to UGCAUGU
7 | B7 | 0.0748 KA relative to UGCAUGU
8 | B8 | 0.0782 KA relative to UGCAUGU
9 | B9 | 0.139 KA relative to UGCAUGU
10 | B10 | 0.114 KA relative to UGCAUGU
11 | B11 | 0.0817 KA relative to UGCAUGU
12 | B12 | 0.086 KA relative to UGCAUGU
13 | B13 | 0.0811 KA relative to UGCAUGU
14 | B14 | 0.0814 KA relative to UGCAUGU
15 | B15 | 0.127 KA relative to UGCAUGU
16 | B16 | 0.0903 KA relative to UGCAUGU

Row | Binder | binding signal
17 | B17 | 0.278 KA relative to UGCAUGU
18 | B18 | 0.219 KA relative to UGCAUGU
19 | B19 | 0.0773 KA relative to UGCAUGU
20 | B20 | 0.141 KA relative to UGCAUGU
21 | B21 | 0.148 KA relative to UGCAUGU
22 | B22 | 0.166 KA relative to UGCAUGU
23 | B23 | 0.166 KA relative to UGCAUGU
24 | B24 | 0.101 KA relative to UGCAUGU
25 | B25 | 0.125 KA relative to UGCAUGU
26 | B26 | 0.126 KA relative to UGCAUGU
27 | B27 | 0.0594 KA relative to UGCAUGU
28 | B28 | 0.0937 KA relative to UGCAUGU
29 | B29 | 0.126 KA relative to UGCAUGU
30 | B30 | 0.383 KA relative to UGCAUGU
31 | B31 | 0.0917 KA relative to UGCAUGU

— PMC9911399, “Two distinct binding modes provide the RNA-binding protein RbFox with extraordinary sequence specificity”
